Here are results for 38 sequences from article PMC13541613.

Only a part is listed here, and it is no random draw. At the low end of the ranking the order means little.

The target in this experiment is ZNF721 DBD2 (UniProt Q8TF20-2). As to the kind of experiment: HT-SELEX. As to conditions: 20 mM HEPES pH 7, 140 mM KCl, 5 mM NaCl, 1 mM K2HPO4, 2 mM MgSO4, 100 uM EGTA, ZnSO4, 0.1% Tween20; room temperature, 1 h; high values mean tight binding; double strand, one strand shown.
The sequence CAAAAAGCAG showed a binding signal (relative 10-mer count) of 0.172.

Take AAAGCTATAC: the binding signal (relative 10-mer count) is 0.00036.

Take AAAAAAGCAT: the binding signal (relative 10-mer count) is 0.067.

The sequence ACTTCATACT showed a binding signal (relative 10-mer count) of 0.000479.

As for CCCAGCCCCC, the binding signal (relative 10-mer count) came out at 0.000599.

CCCACCAACC yielded a binding signal (relative 10-mer count) of 0.00563.

On to CGGTATGAAG, for which the binding signal (relative 10-mer count) was 0.000479.

The sequence ATACACTTCA registered a binding signal (relative 10-mer count) of 0.00036.

In turn, AGCTTCATAC came in with a binding signal (relative 10-mer count) of 0.00012.

In turn, CCTCCCCGCC yielded a binding signal (relative 10-mer count) of 0.00923.

CGCCCCCCCC displayed a binding signal (relative 10-mer count) of 0.000959.

As for AACCCCCACC, the binding signal (relative 10-mer count) turned out to be 0.000479.

Sequence ATGAAGTGTA showed a binding signal (relative 10-mer count) of 0.000599.

On to CTCCGCCCCC, for which the binding signal (relative 10-mer count) was determined as 0.000719.

AAGAAGCTAT gave a binding signal (relative 10-mer count) of 0.00036.

Sequence AGGTATGAAG gave a binding signal (relative 10-mer count) of 0.000719.

Sequence ATGTATGAAG had a binding signal (relative 10-mer count) of 0.000839.

As to GCTTCATACC, the binding signal (relative 10-mer count) was determined as 0.00036.

GAAGCTATAC displayed a binding signal (relative 10-mer count) of 0.00024.

CCCGCCCGCC came in with a binding signal (relative 10-mer count) of 0.000479.

For the sequence CCCCGACCCC, the binding signal (relative 10-mer count) came to 0.000959.

ACCCGCCCCC gave a binding signal (relative 10-mer count) of 0.000719.

For CCGCCACCAC, the binding signal (relative 10-mer count) stood at 0.0036.

The sequence CCCCCCCACA displayed a binding signal (relative 10-mer count) of 0.00743.

Consider CTTCATACCC, for which the binding signal (relative 10-mer count) was 0.000599.

Sequence CCCCCGGCCC displayed a binding signal (relative 10-mer count) of 0.000719.

As to CCCCTGCCCC, the binding signal (relative 10-mer count) turned out to be 0.000959.

Sequence CGCCGCCCCC showed a binding signal (relative 10-mer count) of 0.000719.

On to CCATCCCACC, for which the binding signal (relative 10-mer count) came to 0.00575.

In turn, CCACCTCCCA returned a binding signal (relative 10-mer count) of 0.00384.

CTTCATACCA had a binding signal (relative 10-mer count) of 0.000959.

As to CCCGCTCCCC, the binding signal (relative 10-mer count) was 0.000959.

The sequence GAAGTGTATC gave a binding signal (relative 10-mer count) of 0.000839.

For CCAGCCCCCC, the binding signal (relative 10-mer count) was determined as 0.000959.

In turn, CCCCCCCCCC gave a binding signal (relative 10-mer count) of 0.000839.

Take CCCCAGCCCC: the binding signal (relative 10-mer count) was determined as 0.0018.

In turn, AGCTTCTTTC registered a binding signal (relative 10-mer count) of 0.000839.

ACTTCATACA came in with a binding signal (relative 10-mer count) of 0.000839.
